According to PubChem BioAssay AID504339 (National Center for Advancing Translational Sciences (NCATS), 2011):
Screen size: about 390,000 compounds; about 17,000 (4.4%) were called active. Inconclusive results, whose numbers are uncertain, are shown with a selection of clear calls. Calls come from the whole dose curve; as a rule, active = well fitted inhibition curve with a large enough effect; inconclusive = small, poorly fitted or top-dose-only effect; inactive = no such curve, though single readings can be large or run the other way. Where the call is inconclusive, the potency comes from a doubtful curve fit.

Biological target: Lysine-specific demethylase 4A (Homo sapiens) (UniProt O75164)
Test: qHTS Assay for Inhibitors of JMJD2A-Tudor Domain; note: nearly all actives have a fitted effect of over 50% in size
Conditions: AlphaScreen JMJD2A-Tudor / H3K4me3 peptide binding; activity change, negative = inhibition: at 114 µM (top of the series)
% is set by controls: 0 for no effect and ±100 for the full control effect; potency is the fitted concentration of half-maximal effect; tags give direction and shape of the fitted curve.

UniProt O75164, sequence (O75164 whole entry, looked up, the tested form may be a part): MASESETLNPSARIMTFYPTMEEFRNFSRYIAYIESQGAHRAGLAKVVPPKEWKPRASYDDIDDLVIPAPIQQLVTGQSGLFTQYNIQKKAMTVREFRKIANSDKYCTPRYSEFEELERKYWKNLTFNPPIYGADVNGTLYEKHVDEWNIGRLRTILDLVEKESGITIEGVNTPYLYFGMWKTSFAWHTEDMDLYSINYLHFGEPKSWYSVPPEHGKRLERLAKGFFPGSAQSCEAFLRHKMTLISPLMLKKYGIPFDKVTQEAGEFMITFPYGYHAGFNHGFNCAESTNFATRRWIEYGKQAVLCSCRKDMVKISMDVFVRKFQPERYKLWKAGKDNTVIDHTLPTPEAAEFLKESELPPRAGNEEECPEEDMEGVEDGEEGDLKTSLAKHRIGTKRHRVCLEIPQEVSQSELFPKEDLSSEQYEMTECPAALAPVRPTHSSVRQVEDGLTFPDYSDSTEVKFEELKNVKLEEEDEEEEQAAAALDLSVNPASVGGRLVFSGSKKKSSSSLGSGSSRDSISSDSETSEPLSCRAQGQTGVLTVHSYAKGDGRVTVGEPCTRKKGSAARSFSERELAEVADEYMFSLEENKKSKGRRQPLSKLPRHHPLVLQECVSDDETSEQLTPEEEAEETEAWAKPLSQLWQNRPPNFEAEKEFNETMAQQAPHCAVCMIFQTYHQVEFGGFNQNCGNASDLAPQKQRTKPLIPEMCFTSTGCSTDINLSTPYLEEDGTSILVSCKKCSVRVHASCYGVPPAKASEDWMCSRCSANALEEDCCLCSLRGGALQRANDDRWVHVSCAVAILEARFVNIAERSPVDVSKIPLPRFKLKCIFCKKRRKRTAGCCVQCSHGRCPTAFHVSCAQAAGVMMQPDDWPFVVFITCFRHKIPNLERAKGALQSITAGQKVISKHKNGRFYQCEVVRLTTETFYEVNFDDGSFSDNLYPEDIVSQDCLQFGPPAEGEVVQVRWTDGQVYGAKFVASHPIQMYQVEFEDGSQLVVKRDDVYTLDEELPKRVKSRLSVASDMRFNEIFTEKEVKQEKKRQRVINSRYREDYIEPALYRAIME

Activity change, negative = inhibition, inactive:
OC(CNCCc1ccccc1)c1ccccc1 (centres undefined) -24.5%
Cc1ccc(/C=N/NC(=O)CNC(=O)c2ccc(S(=O)(=O)N3CCCC3)cc2)o1 -9.66%
Cc1cnc(NC(=O)Nc2ccccc2)c(C)n1 1.37%
CCN(C(=O)c1cccc(S(=O)(=O)N2CCc3ccccc32)c1)C1CCS(=O)(=O)C1 (centres undefined) -1.35%
COc1ccccc1NC(=O)NC1(C)CCS(=O)(=O)C1 (centres undefined) -16.2%
CC(C)(C)C(=O)Nc1cc(S(=O)(=O)N2CCCCC2)ccc1N1CCCCC1 -20.6%
Cc1ccc(C(=O)Nc2cccc(C(=O)OCc3cc(=O)n4nc(C5CC5)sc4n3)c2)cc1 -25.2%
COc1ccc(-n2nc(C(=O)NCc3ccc(F)cc3Cl)c3c4ccccc4n(C)c3c2=O)cc1Cl -14.3%
COCC(C)Nc1ncnc2c1cnn2-c1ccc(C)c(C)c1 (centres undefined) -13.8%
Cn1cncc1C#Cc1ccc2cc(CCCO)oc(=O)c2c1 -25.5%
NC(=O)C1CCN(S(=O)(=O)c2ccc(N3CCCCS3(=O)=O)cc2)CC1 -2.32%
CCc1nc(SC)ncc1C(=O)N1CCN(c2cc(C)ccc2C)CC1 -22.8%
CC12CCCCC1(O)[N+](=O)C1=C(CCCC1)N2[O-] (centres undefined) -11% [at 57.1 µM]
COc1cc(C)ccc1OCCOc1c(C)cc(Cl)cc1Cl 71.2%
O=C(COC(=O)c1ccc(F)c([N+](=O)[O-])c1)NC(=O)NCc1ccccc1 -35.3%
CCOc1ccc(N(C(=O)OC(C)(C)C)C(=O)c2ccc(O[Si](C)(C)C(C)(C)C)cc2)c(I)c1 -22.8%
Cc1nc(/N=C(\N)N(C)C)[nH]c(=O)c1C 1.45%

Potency, active:
NC(Cc1ccc2nonc2c1)C(=O)O (centres undefined) 8.91 µM
Oc1ccc(CNc2ccc(C(F)(F)F)cc2F)c2cccnc12 50.1 µM
COc1cccc(CN2CCC(C(=O)N3CCN(Cc4ccc5c(c4)OCO5)CC3)CC2)c1OC 3.16 µM
CCCOc1ccc(CSc2ncn[nH]2)cc1 3.16 µM
COc1ccccc1-c1nnc(NC(=O)c2ccc(S(=O)(=O)N3CCOCC3)cc2)o1 79.4 µM
CCSc1nc2cc(S(=O)(=O)N3CCOCC3)ccc2o1 28.2 µM
CCn1c(-c2ccoc2C)n[nH]c1=S 10 µM
C/C(=N\NC(=O)c1cnccn1)c1ccc([N+](=O)[O-])cc1 22.4 µM

Potency, inconclusive:
CC(C)CNc1nc(N)c([N+](=O)[O-])c(N2CCCCCC2)n1 39.8 µM [inhibitor, partial curve]
COc1ccc(C2CC(=O)c3c(C)nc(N4CCN(c5ccccc5)CC4)nc3C2)cc1 (centres undefined) 100 µM [inhibitor, partial curve, poor fit]
CC1(C)CC(=O)C2=C(C1)NCN(Cc1ccccc1)C2 3.98 µM [inhibitor, partial curve]
C#CCOCCOCCOCCNc1nc(N2CCN(C(=O)[C@H](CCC(=O)O)n3cc(CN)nn3)CC2)nc(N2CCN(C(=O)[C@H](CCCN=C(N)N)n3cc(C(N)[C@@H](C)CC)nn3)CC2)n1 (some centres undefined) 89.1 µM [inhibitor, partial curve]
CC(C)CC(CC(C)C)=NNC(=O)c1ccc(CSc2nncn2C)cc1 35.5 µM [inhibitor, partial curve]
CCOC(=O)c1ccc(N2C(=O)c3n[nH]c(-c4ccco4)c3C2c2cccc(O)c2)cc1 (centres undefined) 25.1 µM [inhibitor, full curve]
O=C1Nc2ccccc2N=C(c2ccccc2)c2ccccc21 44.7 µM [inhibitor, partial curve, poor fit]
CN(C)S(=O)(=O)c1ccc(F)c(C(=O)Nc2ccccc2C(=O)NC2CC2)c1 5.62 µM [inhibitor, partial curve]
S=c1[nH]nc(-c2ccco2)n1/N=C/c1c(Cl)cccc1Cl 5.01 µM [inhibitor, full curve, poor fit]
CN(Cc1ccccc1)c1oc(COc2ccccc2F)nc1C#N 5.62 µM [inhibitor, full curve]
O=[N+]([O-])c1nn(-c2cccc(Cl)c2)n(O)c1=NCc1cccnc1 31.6 µM [inhibitor, full curve, poor fit]
O=C(Cn1nc2ccccc2n1)N/N=C/c1cc([N+](=O)[O-])ccc1O 3.16 µM [inhibitor, single point]
CCn1c(=O)c(C(=O)CN(C)Cc2cccc(OC)c2OC)c(N)n(Cc2ccccc2)c1=O 0.631 µM [inhibitor, partial curve, poor fit]
CC(C)n1c(NCc2c[nH]c3ccccc23)nc2ccccc21 56.2 µM [inhibitor, partial curve]
CCCCOC(=O)CSc1n[nH]c(=O)[nH]c1=O 100 µM [inhibitor, partial curve]
Cc1cc(N2C(=O)C(=O)/C(=C(/O)c3ccc(F)cc3)C2c2cccc(Br)c2)no1 (centres undefined) 89.1 µM [inhibitor, single point]
O=C(c1cc2cc(Cl)ccc2[nH]1)N1CCN(Cc2ccc3c(c2)OCO3)CC1 35.5 µM [inhibitor, partial curve]
CC(C(=O)Nc1ccc([N+](=O)[O-])cc1Cl)N1CCN(S(=O)(=O)c2cccs2)CC1 (centres undefined) 31.6 µM [inhibitor, partial curve]
O=C(Cc1ccsc1)Nc1ccccc1F 28.2 µM [inhibitor, single point]
Cc1c(S(=O)(=O)c2ccccn2)c(N)n(Cc2ccccc2)c1C 12.6 µM [inhibitor, partial curve]
Cc1ccccc1NC(=S)C1=C(O)c2sccc2N(C)S1(=O)=O 79.4 µM [inhibitor, partial curve]
Cc1ccc(-c2ccc(=O)n(CC(=O)N3CCN(c4cc(Cl)ccc4C)CC3)n2)cc1 56.2 µM [inhibitor, partial curve]
CCCn1c2ccc(F)cc2c2nnc(SCCN(CC)CC)nc21 35.5 µM [inhibitor, single point]
Cc1ccc(-n2c(N)c(-c3nc4ccccc4n3C)sc2=S)cc1 25.1 µM [inhibitor, partial curve]
N=C1/C(=C/c2cccs2)C(=O)N=C2SN=C(SCc3ccccc3)N12 14.1 µM [inhibitor, full curve, poor fit]
Cc1ccccc1CSc1nccn1-c1ccccc1 56.2 µM [inhibitor, partial curve]
CCCOc1ccc(C2CC(=O)Nc3c2c(=O)n(C)c(=O)n3C)cc1OC (centres undefined) 89.1 µM [inhibitor, single point]
COc1ccc2c(c1)C(=NNC(=O)c1ccccn1)c1cc(OC)ccc1-2 8.91 µM [inhibitor, full curve, poor fit]
O=[N+]([O-])c1cccc(-c2nnc3ccc4ccccc4n23)c1 70.8 µM [inhibitor, single point]
CC1(C)OC(=O)C(=CNC(CCC(N)=O)C(=O)O)C(=O)O1 (centres undefined) 100 µM [inhibitor, partial curve]
CC(C)(C)C(=O)OCOC(=O)[C@@H]1N2C(=O)[C@@H](N=CN3CCCCCC3)[C@H]2SC1(C)C 79.4 µM [inhibitor, partial curve]
Cc1ccc(S(=O)(=O)NC(C)C(c2cccs2)N2CCN(c3ccccc3)CC2)cc1 (centres undefined) 10 µM [inhibitor, full curve, poor fit]
C[C@@H](C(=O)NCc1c(F)cccc1Cl)N1C(=O)N2CCc3c([nH]c4ccccc34)[C@@]2(C)C1=O 44.7 µM [inhibitor, partial curve]
COc1cc(/C=C2/SC(=S)N(CC(=O)NC(C)(C)C)C2=O)cc(OC)c1OC 31.6 µM [inhibitor, full curve]
N#Cc1ccc(C(=O)Nc2cc(S(=O)(=O)Nc3ccc(Cl)cc3)ccc2N2CCCCC2)cc1 89.1 µM [inhibitor, single point]
COc1ccc(/C=N/N2C(=O)CSC2=S)cc1Br 35.5 µM [inhibitor, full curve]
O=C(COC(=O)C1CCN(S(=O)(=O)c2cccs2)CC1)c1ccccc1 100 µM [inhibitor, single point]
O=C(c1ccc(COc2ccc(F)cc2)o1)n1cc(Br)cn1 56.2 µM [inhibitor, partial curve]
Cc1ccc(-c2nc3ncccn3c2Nc2ccc3c(c2)OCO3)o1 56.2 µM [inhibitor, partial curve]
O=C(CCN1C(=O)/C(=C/c2ccccc2)SC1=S)Nc1ccccn1 5.01 µM [inhibitor, full curve, poor fit]
CC(=O)c1ccc(NC(=O)C(C)Sc2nnc(-c3ccncc3)n2C2CC2)cc1 (centres undefined) 39.8 µM [inhibitor, single point]
Cc1nc2[nH]c(=S)[nH]c(=O)c2nc1C 17.8 µM [inhibitor, full curve, poor fit]
COc1cc(C2C(C(=O)C(C)(C)C)=C(O)C(=O)N2Cc2ccccc2)ccc1O (centres undefined) 89.1 µM [inhibitor, partial curve]

Potency, inactive:
COc1ccc(S(=O)(=O)NCc2nc3nc(C)cc(C)n3n2)cc1OC
